Measured values taken from ChEMBL document CHEMBL4888484, “Replenishing the malaria drug discovery pipeline: Screening and hit evaluation of the MMV Hit Generation Library 1 (HGL1) against asexual blood stage Plasmodium falciparum ,using a nano luciferase reporter read-out” (2022).
Out of some 150,000 compounds screened, about 540 (0.36%) showed an effect of 50% or more. The list shows a part of the results.

System: Plasmodium falciparum
Assay: Primary screen in NF54 nanoGlo assay, in single point, at 2uM, 72h; a lower Z score goes with more inhibition
Format: functional, Erythrocyte
Conditions: timepoint 72 hour

| Compound | % Inhibition | Z score |
| --- | --- | --- |
| CCOc1cccc(NC(=O)N(C)CCC2(O)CCCC2)c1 | 4% | -0.59 |
| CCCn1cnc(NC(=O)c2cccc(CN3CCC[C@H](O)C3)c2)n1 | -15% | 2.28 |
| O=S(=O)(NCc1cccnc1-n1ccnc1)c1c[nH]c2cccc(F)c12 | -12% | 1.82 |
| Cc1cccc(CS(=O)(=O)N2CC(n3ccnn3)C2)c1 | -5% | 0.61 |
| Cc1ccccc1-n1cc(CN2CCNC(=O)[C@@H]2c2ccccc2Cl)nn1 | -2% | 0.44 |
| Cc1ocnc1CNC(=O)N1CC(C)(C)C[C@H]1c1ccccc1 | -1% | 0.13 |
| CN(C(=O)c1ccnn1C)c1ccc(C(F)(F)F)cc1Cl | 9% | -1.69 |
| CCN1CCN(C(=O)COc2cccnc2)[C@@H](C)C1=O | -4% | 0.7 |
| O=S(=O)(c1cccc(-c2nnc3n2CCCC3)c1)N1CCCC1 | -3% | 0.56 |
| O=C(CCn1cncn1)N1CCCCO1 | -11% | 1.67 |
| O=C(Nc1ccc(S(=O)(=O)Nc2nccs2)cc1)C1CN(c2nc3ccc(F)cc3s2)C1 | -4% | 0.71 |
| Cc1nc2ccc(Cl)cn2c1[C@H]1CC(=O)Nc2[nH]nc(-c3ccco3)c21 | -5% | 0.95 |
| CN(C(=O)c1ccc(N2C(=O)CCS2(=O)=O)cc1Cl)c1ccccc1 | -14% | 1.83 |
| O=C(N[C@@H]1[C@@H]2CCO[C@@H]2[C@H]1N1CCCCC1)c1ccn2nnnc2c1 | 3% | -0.65 |
| Cc1cnc(C)c(NCCn2cnc(C)c2C)n1 | -6% | 0.69 |
| C[n+]1cnc(-c2ccccc2)cc1-c1ccccc1 | 1% | -0.07 |
| COc1ccc(C2CCNCC2NC(=O)CCC2CCOC2)cc1 (stereo not given) | -14% | 2.64 |
| CC(C)N1CCC(NC(=O)CC#N)C1c1ccc(Cl)c(F)c1 (stereo not given) | 0% | 0.02 |
| O=C(NCc1cccnc1)c1cc(-n2ccnc2)ccn1 | -5% | 0.89 |
| CCOc1cc(C(=O)NCCc2ccccc2OC)ncn1 | 0% | 0.08 |
| CCN(CC)CCN(CC(=O)N1CCCN(c2ccc(-c3ccccc3Cl)nn2)CC1)C(=O)COC | -7% | 0.81 |
| CC(=O)N1CC(C(=O)NCc2oc(C(C)C)nc2C)C1 | -1% | 0.13 |
| COC(=O)c1c(NC(=O)c2cc3n(n2)CCC3)c2cccnc2n1C | -24% | 3.62 |
| Cc1nc[nH]c1C(=O)N(C)Cc1csc(-c2ccccc2)n1 | -11% | 2.15 |
| O=C1CCC2(CCN(Cc3ccc(C#CCO)cc3)CC2)CN1C[C@H]1CCCO1 | 2% | -0.36 |
| Cc1ncsc1CN[C@@H](C)c1coc2ccccc12 | 14% | -1.81 |
| COc1cc(CN2C[C@H](NC(C)=O)[C@@H](c3ccc(C)cc3)C2)cc(OC)c1 | -26% | 2.79 |
| Cc1cc(C(=O)N[C@@H](CC(F)F)C(=O)O)cc(Cl)c1Br | -19% | 2.13 |

| Compound | % Inhibition | Z score |
| --- | --- | --- |
| O=C1CCCCC1C1CCCCCN1C(=O)N1CCOCC1 (stereo not given) | 2% | -0.39 |
| O=C(CN1CCN(S(=O)(=O)c2cccc(F)c2)CC1)NC1CCCCCC1 | -8% | 0.86 |
| COc1ccc([C@H]2CC(=O)Nc3ncn(-c4ccc(C(F)(F)F)cc4)c32)cc1OC | -1% | 0.13 |
| CCn1ccc(C(=O)Nc2cc(-c3c(C)c4ccccc4n3CC)n[nH]2)n1 | -7% | 0.76 |
| N#CC1(c2ccc(Cl)cc2Cl)CCC(=O)CC1 | -5% | 0.63 |
| OCCOc1cncc(N2CCOC3(CCCCCC3)C2)n1 | 8% | -0.67 |
| CS(=O)(=O)c1cccc(OCCn2ccnn2)c1 | 1% | -0.15 |
| Cc1nn(-c2ccc(Cl)cc2)cc1-c1noc(C(=O)NC2CCN(Cc3ccccc3)CC2)n1 | 18% | -2.15 |
| OCc1ccc(Cl)c(NCc2noc([C@@H]3COc4ccccc4O3)n2)c1 | -2% | 0.31 |
| CC(C)(C)n1ncnc1CN1CCCC1CC(O)c1cccs1 (stereo not given) | 3% | -0.55 |
| O=C(CCC1CCCC1)N[C@H]1CCCCNC1=O | 6% | -0.53 |
| Cc1ccc(C(=O)N2CCc3c(c(-c4nncn4CC4CC4)nn3C)C2)cn1 | -5% | 0.67 |
| c1ccc(CNCCN2CCc3ccccc3C2)cc1 | -11% | 1.86 |
| O=C(Nc1ccc2c(c1)OCCCO2)c1ccc2c(c1)CCCC2 | -11% | 1.37 |
| CC1CN(C(=O)c2cc(C(N)=O)c[nH]2)CC(C)N1 (stereo not given) | -10% | 1.23 |
| CC(C)N1C[C@@H](C(=O)N2CC(Oc3ccccc3F)C2)CC1=O | -5% | 0.71 |
| CCc1nnc2ccc(S(=O)(=O)N(CC(=O)OC)c3cc(F)cc(F)c3)cn12 | -7% | 1.12 |
| C#CCN(Cc1cccc(C)n1)S(=O)(=O)c1sccc1OC | -1% | 0.2 |
| C[C@@H](c1ccc(Cl)cc1)N1CCc2c(O)nn(C)c2C1 | -8% | 0.71 |
| CCn1ccc(C(=O)N2CCCn3nc(-c4ccncc4)cc3C2)n1 | -27% | 5.09 |
| O=C(COC1CCCCC1)Nc1nc2c(ccc3ccccc32)s1 | -10% | 1.94 |
| CC[N+](CC)(CC(=O)OC1CC2CCC1(C)C2(C)C)CC(=O)OC1CC2CCC1(C)C2(C)C (stereo not given) | 77% | -8.45 |
| COC(=O)[C@H](C)NC(=O)n1ncc2ccccc21 | -15% | 3.02 |
| CC1CC(C)CN(C2CCCCC2=O)C1 (stereo not given) | -6% | 0.63 |
| CCC1Oc2cc(C(C)NCc3ccncc3Cl)ccc2NC1=O (stereo not given) | -2% | 0.22 |
| O=C(c1ccccc1)N1CCC(N2CC3(CCCC3)[C@H]2c2ccccc2)CC1 | -5% | 0.84 |
| CCOc1cc2c(cc1OCC)[C@H](c1ccc(OC)c3ccccc13)NCC2 | -1% | 0.16 |
